Over roughly 33,000 sequences, “E-score (-0.5 to 0.5)” has its median near -0.017; the highest 2% begin near 0.3. This is one part of the list.
Biological target: T1, Sut1 (UniProt P53032)
T1 sequence: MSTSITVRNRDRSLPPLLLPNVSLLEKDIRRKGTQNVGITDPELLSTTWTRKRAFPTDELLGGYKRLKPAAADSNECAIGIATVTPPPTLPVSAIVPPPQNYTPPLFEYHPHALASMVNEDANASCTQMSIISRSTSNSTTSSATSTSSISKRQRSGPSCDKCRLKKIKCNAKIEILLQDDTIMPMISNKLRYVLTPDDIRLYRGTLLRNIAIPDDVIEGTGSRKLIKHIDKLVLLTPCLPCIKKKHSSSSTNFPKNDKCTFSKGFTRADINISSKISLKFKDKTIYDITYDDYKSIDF
Experiment: PBM E-score (8-mer binding enrichment) (E-score (-0.5 to 0.5)); higher = stronger / more preferred TF binding; most listed sequences are background and not binding sites
Settings: protein concentration: 200 nM; construct: GST-full length
Procedure, shortened: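 Detection of bound protein used fluorescent anti-GST, with scans normalised by masliner. The proteins were GST-tagged yeast transcription factors applied at about 100-200 nM to universal all-10-mer Agilent arrays made double-stranded by primer extension. Each ungapped eight-base word, pooled with its reverse complement, was scored with an E-score from the Universal PBM Analysis Suite.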

Row | Sequence | PBM E-score
1 | AGGGACGG | -0.208
2 | AACCCTCG | -0.201
3 | GCGCGCCA | 0.0637
4 | ACATCTAA | 0.0364
5 | CCTCGCAA | -0.186
6 | CAGAGCGA | -0.039
7 | GTGGTTTA | -0.00096
8 | TTATTCAA | 0.262
9 | AGGGGCGA | -0.43
10 | AGCAGTAA | 0.0389
11 | AGGGTCCA | -0.289
12 | ATGATAGG | 0.0269
13 | AGTCAAAT | 0.0856
14 | GCATACGC | -0.122
15 | ATACCCGA | -0.0834
16 | ACTCTTGC | -0.174
17 | AGAGTAGG | -0.0457
18 | CGCTTCAC | -0.176
19 | GGGGAACA | -0.142
20 | ATCTGAGG | -0.0962
21 | GAATTGTC | -0.0575
22 | CGACCCAA | 0.0507
23 | ACGTTCTC | 0.0774
24 | AGCAGAGG | -0.311
25 | CTCCCGCC | -0.223

Row | Sequence | PBM E-score
26 | CTAAGTGA | 0.134
27 | ATGCTATC | -0.137
28 | TCCAGAAA | -0.0459
29 | CAGTTACG | -0.146
30 | ACTCGATC | 0.0221
31 | GGTGAGAA | 0.137
32 | CACTTGCA | -0.0957
33 | CAAGGCGA | -0.276
34 | ACTGTGAA | 0.0243
35 | ACTCTATG | -0.0223
36 | ACGGTCAG | -0.205
37 | AGGAAACG | -0.00178
38 | TGAGGCAA | -0.0189
39 | CCCGTAAC | -0.0218
40 | GACTTAGA | 0.0169
41 | ACATTGAG | 0.0164
42 | CAACAAAA | 0.188
43 | TCCGCGGA | 0.289
44 | TTACATAA | 0.288
45 | CACCCTTC | -0.101
46 | CTCCGGAG | 0.487
47 | ATCGCTAG | 0.0238
48 | GGGGAAGA | -0.281
49 | TGCGAACA | 0.15
50 | AAAATGAG | -0.00485

Row | Sequence | PBM E-score
51 | AATGACGG | 0.18
52 | CACTGTGC | -0.0889
53 | CACAGGGG | -0.39
54 | CCTGTCGA | -0.148
55 | CTGGTAAC | -0.0815
56 | ACTCCAAA | 0.135
57 | CTTCCCTA | -0.104
58 | ACCATCCC | 0.0116
59 | AGTTGCCA | -0.0183
60 | CTGCTAAC | -0.114
61 | ACCACACC | -0.0678
62 | GGGACCCC | -0.202
63 | AAGGAGGT | 0.0105
64 | AGCCGCTG | -0.166
65 | CACCTTCA | -0.107
66 | ACCCGTGA | -0.134
67 | ACGGAGTG | 0.42
68 | AGCGCCAT | -0.311
69 | CAAGTACC | -0.025
70 | AGGTCGGC | -0.131
71 | AACTCTAG | -0.0347
72 | AGATCCCT | -0.102
73 | CTCCTCGC | -0.277
74 | ATATGCGG | 0.0987
75 | AGCCGCTC | -0.0222

Row | Sequence | PBM E-score
76 | CCCTTCAA | -0.068
77 | AAACTCGT | 0.0914
78 | AAATCGGT | 0.0195
79 | TAGGAGAA | -0.0909
80 | ACTCGAGC | -0.154
81 | TATGTGGA | 0.212
82 | ATGACCGG | 0.00977
83 | GATTCTCC | 0.162
84 | AGTATTTC | 0.206
85 | CCCCTGAC | -0.23
86 | AGCAGGAC | -0.0558
87 | GTGGATTA | 0.0983
88 | CACTCAGA | -0.114
89 | CAGTTAGC | -0.11
90 | AACGATCA | 0.0789
91 | AAACTGAG | 0.0712
92 | GTGGCCGA | -0.093
93 | ACTAGGAT | 0.0557
94 | CCCGTACC | -0.0545
95 | AAGGGGAA | -0.226
96 | ATAAGCGG | -0.134
97 | AATCTGGG | -0.0872
98 | GCACCCAC | -0.155
99 | AACAGACT | 0.0447
100 | AGCTAGGA | -0.186

Row | Sequence | PBM E-score
101 | CCCCGAAC | 0.0945
102 | CAGTGGTA | -0.0944
103 | AGTAGAAG | 0.0396
104 | AAGACAGT | -0.125
105 | ACAGGGGC | -0.3
106 | AAAGCTAC | -0.144
107 | CACCAACG | -0.128
108 | CTCCTCTA | -0.154
109 | CCCCCGCG | -0.0782
110 | CAGCAAAA | 0.0136
111 | GCATTCGA | 0.0434
112 | TCGTCTCA | -0.112
113 | CTCTTACC | 0.0992
114 | AGCAGCCT | -0.104
115 | AAATTTCG | 0.196
116 | GGGTAAAA | 0.173
117 | CCGTAAAA | 0.169
118 | CTTGCCCA | -0.0298
119 | GACGGAAA | 0.194
120 | ACACGGGG | -0.0866
121 | AGGAAACC | -0.071
122 | AGTCAGTG | -0.213
123 | AATGAGAG | -0.0825
124 | AACACTGT | -0.0434
125 | CCGCGGAC | 0.274

Row | Sequence | PBM E-score
126 | ATTGGCCC | -0.289
127 | CACCAGCG | -0.144
128 | AACTTAAA | 0.266
129 | ATACTACA | 0.147
130 | AACGTTTC | -0.0394
131 | CGCAGAAA | 0.0491
132 | GGTAGTGA | -0.0509
133 | GGACGACA | 0.149
134 | CAGTAAAG | -0.0703
135 | CTCATGAG | -0.0517
136 | GAACTAGC | -0.0235
137 | CCATAAGA | -0.0704
138 | GCTTCAGA | -0.0195
139 | ATCCAAAA | 0.178
140 | GGTTTACA | 0.0694
141 | AGCGGGGC | -0.235
142 | ACCATACG | 0.0284
143 | AGCGAATG | -0.127
144 | AAGGCCTG | -0.183
145 | ATTAGCTG | -0.16
146 | AGTAACGC | 0.0355
147 | AAACATGC | -0.0558
148 | TAATTACA | 0.193
149 | AAAGTTTA | 0.203
150 | GATGAAAC | 0.14

Row | Sequence | PBM E-score
151 | CGGGCGCA | -0.206
152 | ATCGAAAA | 0.152
153 | AACCTTCC | -0.189
154 | CTGAAATA | 0.121
155 | GCGTCACC | -0.296
156 | CAGAAACG | -0.0454
157 | AGACCGTC | -0.0226
158 | CCTCCGCG | -0.0947
159 | AAAGTACC | 0.044
160 | TATAGAAA | 0.217
161 | ATAGCCAC | 0.0314
162 | CCGATGTA | 0.0524
163 | CTTCTACC | -0.116
164 | ACATAGGC | 0.0255
165 | CTGCGGCC | -0.21
166 | CTGCGGGC | -0.0258
167 | ACTATAGT | 0.254
168 | AATATCAG | 0.0528
169 | GTTCGCAA | 0.124
170 | CAGTCGTA | -0.00825
171 | GGCCCCCC | -0.289
172 | GAAATAGA | 0.164

Source: the supplement of paper PMC3334620
